About 360 (0.19%) of roughly 190,000 compounds were called active. The shares of active, inactive and inconclusive entries below differ from those in the screen.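 Rule for the calls: active = GTP binding activity at least 20 points away from 100%, either lowered or raised; inconclusive = signal likely due to the compound's own green fluorescence; inactive = the rest.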
target: Ras-related protein Rab-2A (Canis lupus familiaris) (UniProt P61105); assay: Rab2 wt fluorescent GTP binding changes, either direction – biochemical, dog, bead-based flow cytometry, multiplex, primary screen (AID 760); details: GST-Rab2 wt beads, Bodipy-GTP binding, at 10 µM;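 note: 0% = beads with excess unlabeled GTP and 100% = no-compound control corrected for plate trend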

| Compound | GTP binding activity |
| --- | --- |
| Cc1n[nH]c(=O)nc1N1CCN(c2ccccc2)CC1 | inconclusive: 90% |
| O=c1c2ccccc2nc2c3ccccc3c(NCc3ccccn3)nn12 | active: 74% |
| COC(=O)COc1ccc(S(=O)(=O)Nc2ccc3c(c2)OCO3)cc1 | inconclusive: 104% |
| COc1ccc(C(=O)O/N=C(\N)Cc2ccc(Cl)c(Cl)c2)cc1OC | inconclusive: 99% |
| O=C(CSc1ccc2c(c1)OCCO2)Nc1cccnc1 | inconclusive: 92% |
| Cc1cc(C2(c3cc(C)c(NC(=O)CN4CCOCC4)c(C)c3)CCCCC2)cc(C)c1NC(=O)CN1CCOCC1 | inconclusive: 108% |
| O=S(=O)(c1ccc2c(c1)oc1ccccc12)N1CCOCC1 | inconclusive: 105% |
| Cc1onc(C(=O)NN)c1C(=O)N1CCN(C(c2ccccc2)c2ccccc2)CC1 | inconclusive: 92% |
| CC(=O)Nc1ccc(S(=O)(=O)N2CCN=C2C)cc1 | inconclusive: 104% |
| COC(=O)c1c(N2C(=O)[C@H]3[C@@H](C2=O)[C@]2(C(=O)Nc4c(C)cc(C)cc42)N2CCC[C@@H]32)sc(C)c1C | active: 126% [activator] |
| CN(C)C1(CNC(=S)Nc2ccccc2C(F)(F)F)CCCCC1 | inactive: 101% |
| Oc1c(CN2CCN(c3ccccn3)CC2)cc(Cl)c2cccnc12 | inconclusive: 101% |
| CC(=O)Nc1ccc(NC(=O)c2ccc(C)c(S(=O)(=O)Nc3cccc(C)c3)c2)cc1 | inactive: 94% |
| Nc1nnc(-c2ccc(Cl)cc2Cl)s1 | inconclusive: 87% |
| COC(=O)c1cc(NC(=O)c2cccc([N+](=O)[O-])c2C)ccc1Cl | inactive: 94% |
| COc1ccc(C2=Nn3c(nnc3-c3ccccc3)SC2)cc1OC | inactive: 82% |
| Nc1[nH]ncc1C(=O)Nc1cccc(C(F)(F)F)c1 | inconclusive: 103% |
| CCOC(=O)C1CCCN(C(=O)CCCOc2cc(=O)n(C)c3ccccc23)C1 (stereo not given) | inconclusive: 93% |
| CCCC/C(O)=C1\C(=O)CC(C)(C)CC1=Nc1ccccc1OC | inconclusive: 104% |
| Cc1nc2ccccc2nc(=O)c1NNc1ccc([N+](=O)[O-])cc1 | inconclusive: 93% |

| Compound | GTP binding activity |
| --- | --- |
| N#Cc1ccc(-c2ccc(F)cc2)nc1Sc1ccccc1 | inconclusive: 106% |
| COc1cc(CC(C#N)(CO)c2nc3ccccc3[nH]2)ccc1OC(F)F (stereo not given) | inactive: 98% |
| CCOC(=O)c1c(NC(=O)c2c(-c3ccccc3)noc2C)sc(C)c1-c1ccccc1 | inconclusive: 102% |
| Nc1n[nH]c(-c2ccccc2)n1 | inconclusive: 103% |
| Clc1ccccc1N=C1NN=C(c2cccs2)CS1 | inactive: 96% |
| COc1ccc(-n2c(SC(CN3CCCCC3)CN3CCCC3=O)nc3ccccc3c2=O)cc1 (stereo not given) | inactive: 97% |
| CCOC(=O)c1cc(NC(=O)Nc2cc(C)ccn2)c(C)nc1C | inconclusive: 95% |
| Clc1ccc(-c2n[nH]c3c2CCC3)cc1Cl | inconclusive: 101% |
| Nc1ccc(S(=O)(=O)Nc2ccc(S(N)(=O)=O)cc2)cc1 | inconclusive: 94% |
| CCOC(=O)N1CCN(C(=O)CNC2CCCCCCC2)CC1 | inactive: 96% |
| CC(=O)c1cccc(NC(=O)Cn2cc3c(n2)CCCC3)c1 | inconclusive: 101% |
| COc1ccc(C(=O)CSc2ccc3nnc(-c4cccnc4)n3n2)cc1 | inactive: 95% |
| O=C(COc1ccc(C(=S)N2CCOCC2)cc1)N1CCCC1 | inconclusive: 106% |
| COc1ccc(-n2nc(C(=O)NCC(=O)Nc3ccccn3)c3ccccc3c2=O)cc1Cl | inconclusive: 115% |
| CC(=O)Nc1cn(C(C)=O)c(C)n1 | inconclusive: 107% |
| CCOC(=O)N1CCN(C(=O)C(c2ccccc2)c2ccccc2)CC1 | inconclusive: 104% |
| CN(C)S(=O)(=O)c1cccc(NC(=S)N(CCC#N)Cc2cccnc2)c1 | inactive: 99% |
| Cc1nc2c(nnn2Cc2ccccc2)c(=O)[nH]1 | inconclusive: 81% |
| CCCCn1c(=O)[nH]c(=O)c2c1nc(-c1ccc(C#N)cc1)n2C1CCCC1 | inconclusive: 103% |
| Cc1ccc2nc(NC(=O)C3CCN(S(=O)(=O)c4cc([N+](=O)[O-])ccc4Cl)CC3)sc2c1 | inconclusive: 102% |

| Compound | GTP binding activity |
| --- | --- |
| Cc1ccnc2nc(C(=O)OCCOc3ccc(Cl)cc3)nn12 | inconclusive: 93% |
| COc1cccc(NC(=O)CSC(N)=O)c1 | inactive: 98% |
| O=C(/C=C/c1ccco1)Oc1cc(Br)cc(/C=N/NC(=O)c2ccccc2O)c1 | inconclusive: 96% |
| OC(CNCc1ccccn1)c1ccccc1 (stereo not given) | inconclusive: 102% |
| CC1CC(C)CN(C(=O)C(NS(=O)(=O)c2ccc(Br)s2)c2ccccc2)C1 (stereo not given) | inactive: 100% |
| CC(C)(C)NC(=O)CC(CC(=O)O)c1ccccc1 (stereo not given) | inconclusive: 102% |
| Cc1c(Cl)cccc1NC(=S)NCC(c1cccnc1)N(C)C (stereo not given) | inactive: 95% |
| CCOc1cc(CNc2ccc3c(c2)OCCO3)cc(Br)c1OC | inconclusive: 102% |
| Cc1cc(C(=O)NNC(=S)NC(C)c2ccccc2)c2ccccc2n1 (stereo not given) | inconclusive: 122% |
| N#CCc1nn(-c2ccccc2)c(N)c1C#N | inconclusive: 94% |
| N#C/C(=C\c1ccc(-c2ccc(C(=O)O)cc2)o1)c1nc2ccccc2[nH]1 | active: 77% |
| CSc1nc2ccc(NC(=O)c3c(F)cccc3F)cc2s1 | inconclusive: 93% |
| CSC1=NC2(CCCCC2)CC12C=CC(=O)C=C2 | inactive: 97% |
| CN1CC(=O)NC1=NC(=O)c1ccc(Cl)c(S(=O)(=O)N2CCCCCC2)c1 | inactive: 89% |
| CCOC(=O)N1CCC(Nc2ccc3nnc(-c4ccccc4)n3n2)CC1 | inconclusive: 88% |
| Cc1ccc2cccc(OCC(=O)N3CC(C)CC(C)C3)c2n1 (stereo not given) | inconclusive: 91% |
| O=C(COC(=O)c1cc(Br)c(Br)s1)NCCC1=CCCCC1 | inactive: 90% |
| Cc1cc(C)n(-c2nc(SCC(=O)Nc3nccs3)c3c4c(sc3n2)COC(C)(C)C4)n1 | inconclusive: 96% |
| Cc1cc(-c2ccccc2)[nH]c(=O)c1S(=O)(=O)c1ccc(Cl)cc1 | inconclusive: 97% |
| O=C(COC(=O)/C=C/c1ccc([N+](=O)[O-])cc1)NC(c1ccccc1)c1ccccc1 | inactive: 98% |

Source: PubChem BioAssay AID760 (NMMLSC, 2007)
